These are yes or no findings as the source states them, for the method shown. For part of these data: In cells and extracts the contact can be indirect. Some results given as binding are weak or reduced against the parent protein; the word gives no strength. For part of these data: Tags and fused reporters may be left off the sequences shown.
Assays:
GST-tagged ENP1 (human) = GST-tagged ENP1 (human) (UniProt Q13895); test: pull-down; 50 ng GST-tagged bait with equal amounts of His-tagged or untagged prey; 50 mM Tris-HCl pH 8.0, 10% glycerol, 300 mM NaCl, 5 mM MgCl2, 0.1% Tween20; 1 h at 4°C; glutathione sepharose; western blotting; both purified
FLAG-tagged U3-55K = molecular target: T1, FLAG-tagged U3-55K (UniProt O43818); test: co-IP; whole cell extracts (sonication) of HEK293 cells expressing the FLAG-tagged bait at endogenous levels; anti-FLAG antibody coupled to protein G sepharose, non-antibody-bound beads as control; eluates western blotted for endogenous proteins
T1 sequence: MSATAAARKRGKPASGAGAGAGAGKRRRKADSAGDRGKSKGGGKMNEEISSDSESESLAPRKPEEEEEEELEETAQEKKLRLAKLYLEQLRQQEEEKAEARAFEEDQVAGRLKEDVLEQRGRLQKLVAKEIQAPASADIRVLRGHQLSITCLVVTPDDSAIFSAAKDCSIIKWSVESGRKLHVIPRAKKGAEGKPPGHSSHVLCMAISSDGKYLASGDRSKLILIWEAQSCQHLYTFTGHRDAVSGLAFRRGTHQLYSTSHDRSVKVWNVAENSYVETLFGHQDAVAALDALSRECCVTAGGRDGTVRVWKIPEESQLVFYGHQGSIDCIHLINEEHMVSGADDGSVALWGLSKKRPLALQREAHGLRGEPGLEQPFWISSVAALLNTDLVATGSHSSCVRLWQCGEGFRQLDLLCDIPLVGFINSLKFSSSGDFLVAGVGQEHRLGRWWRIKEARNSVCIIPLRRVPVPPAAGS

Protein sequences, listed by entry. Tags and fused reporters are not part of them.
UniProt Q13895: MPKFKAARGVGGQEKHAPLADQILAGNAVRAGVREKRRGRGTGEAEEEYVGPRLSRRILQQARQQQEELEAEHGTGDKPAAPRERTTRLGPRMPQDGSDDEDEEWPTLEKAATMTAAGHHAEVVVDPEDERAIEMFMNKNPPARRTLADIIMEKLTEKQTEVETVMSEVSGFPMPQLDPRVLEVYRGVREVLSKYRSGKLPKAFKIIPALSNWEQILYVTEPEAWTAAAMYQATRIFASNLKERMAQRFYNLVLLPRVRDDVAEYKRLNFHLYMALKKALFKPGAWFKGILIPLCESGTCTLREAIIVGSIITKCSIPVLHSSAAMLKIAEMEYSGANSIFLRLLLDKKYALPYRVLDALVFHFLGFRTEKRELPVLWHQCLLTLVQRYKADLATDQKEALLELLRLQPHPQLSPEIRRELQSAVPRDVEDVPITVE
UniProt Q9UNQ2: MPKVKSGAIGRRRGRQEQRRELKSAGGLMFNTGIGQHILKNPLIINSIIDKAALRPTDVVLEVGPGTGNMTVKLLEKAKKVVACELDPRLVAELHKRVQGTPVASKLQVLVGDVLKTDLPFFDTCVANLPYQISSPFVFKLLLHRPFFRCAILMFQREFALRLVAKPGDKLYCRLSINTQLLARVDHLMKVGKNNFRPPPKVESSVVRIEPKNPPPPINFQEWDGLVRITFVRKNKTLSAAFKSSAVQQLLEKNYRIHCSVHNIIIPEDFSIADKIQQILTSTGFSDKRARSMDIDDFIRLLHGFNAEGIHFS
UniProt Q9NRX1: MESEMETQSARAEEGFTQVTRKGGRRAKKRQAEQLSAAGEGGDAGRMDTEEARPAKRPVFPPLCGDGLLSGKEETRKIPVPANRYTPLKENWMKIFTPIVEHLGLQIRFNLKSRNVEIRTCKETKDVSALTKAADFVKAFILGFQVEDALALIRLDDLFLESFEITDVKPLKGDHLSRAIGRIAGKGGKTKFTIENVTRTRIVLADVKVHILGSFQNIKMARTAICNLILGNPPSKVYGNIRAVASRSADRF
UniProt Q9BVS4: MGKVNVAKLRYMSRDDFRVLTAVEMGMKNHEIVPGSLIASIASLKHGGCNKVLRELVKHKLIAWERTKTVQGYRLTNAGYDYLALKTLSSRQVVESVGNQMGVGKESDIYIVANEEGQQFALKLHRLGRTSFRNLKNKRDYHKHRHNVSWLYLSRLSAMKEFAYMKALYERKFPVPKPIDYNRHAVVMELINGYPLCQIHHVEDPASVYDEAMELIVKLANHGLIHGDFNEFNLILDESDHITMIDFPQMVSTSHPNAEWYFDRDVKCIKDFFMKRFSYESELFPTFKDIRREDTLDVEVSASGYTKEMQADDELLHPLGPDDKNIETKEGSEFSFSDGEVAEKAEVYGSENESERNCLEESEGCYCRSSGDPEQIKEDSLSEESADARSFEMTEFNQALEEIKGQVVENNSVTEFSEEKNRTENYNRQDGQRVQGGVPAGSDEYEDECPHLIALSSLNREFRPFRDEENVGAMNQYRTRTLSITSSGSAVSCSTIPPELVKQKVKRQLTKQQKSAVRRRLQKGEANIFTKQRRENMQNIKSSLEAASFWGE
UniProt O43143: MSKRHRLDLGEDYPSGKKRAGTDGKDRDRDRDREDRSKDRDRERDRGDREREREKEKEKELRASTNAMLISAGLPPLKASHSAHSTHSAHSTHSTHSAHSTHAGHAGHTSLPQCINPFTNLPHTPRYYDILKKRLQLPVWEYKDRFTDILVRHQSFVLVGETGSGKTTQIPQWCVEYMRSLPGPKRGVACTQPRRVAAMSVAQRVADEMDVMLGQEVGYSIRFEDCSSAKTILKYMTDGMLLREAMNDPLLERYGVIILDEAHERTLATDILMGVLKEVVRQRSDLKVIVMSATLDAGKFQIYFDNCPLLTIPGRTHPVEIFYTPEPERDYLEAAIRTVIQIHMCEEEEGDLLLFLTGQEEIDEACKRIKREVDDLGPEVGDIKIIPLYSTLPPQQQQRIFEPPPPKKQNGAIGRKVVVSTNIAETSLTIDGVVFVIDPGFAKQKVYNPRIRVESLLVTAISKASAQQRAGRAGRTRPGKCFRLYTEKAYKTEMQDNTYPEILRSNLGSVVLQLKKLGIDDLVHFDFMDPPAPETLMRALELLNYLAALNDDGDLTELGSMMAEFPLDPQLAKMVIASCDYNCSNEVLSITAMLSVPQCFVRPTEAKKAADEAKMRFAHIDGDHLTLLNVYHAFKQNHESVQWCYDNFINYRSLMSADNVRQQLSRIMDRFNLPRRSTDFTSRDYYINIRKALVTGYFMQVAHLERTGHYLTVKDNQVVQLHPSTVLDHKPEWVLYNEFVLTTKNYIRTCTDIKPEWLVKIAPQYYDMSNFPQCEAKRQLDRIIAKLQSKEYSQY

FLAG-tagged DIM1 (human) = FLAG-tagged DIM1 (human) (UniProt Q9UNQ2); test: as above
FLAG-tagged NOB1 (human) = molecular target: T2, FLAG-tagged NOB1 (human) (UniProt Q9ULX3); test: as above
T2 sequence: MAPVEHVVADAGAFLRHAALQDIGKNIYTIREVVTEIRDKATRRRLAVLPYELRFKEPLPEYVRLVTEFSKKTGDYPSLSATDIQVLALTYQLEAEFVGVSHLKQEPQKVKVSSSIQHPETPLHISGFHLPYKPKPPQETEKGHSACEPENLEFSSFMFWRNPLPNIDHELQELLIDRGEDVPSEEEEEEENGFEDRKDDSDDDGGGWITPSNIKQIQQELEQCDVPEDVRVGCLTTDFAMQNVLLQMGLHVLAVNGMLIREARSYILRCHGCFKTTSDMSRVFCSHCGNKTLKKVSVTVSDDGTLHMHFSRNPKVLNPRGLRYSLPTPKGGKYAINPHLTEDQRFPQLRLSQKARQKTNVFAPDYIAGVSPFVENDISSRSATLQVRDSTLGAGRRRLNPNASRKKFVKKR

FLAG-tagged PNO1 (human) = FLAG-tagged PNO1 (human) (UniProt Q9NRX1); test: as above
GST-tagged RIO2 (human) = GST-tagged RIO2 (human) (UniProt Q9BVS4); test: pull-down; 50 ng GST-tagged bait with equal amounts of His-tagged or untagged prey; 50 mM Tris-HCl pH 8.0, 10% glycerol, 300 mM NaCl, 5 mM MgCl2, 0.1% Tween20; 1 h at 4°C; glutathione sepharose; western blotting; both purified

| Substance | binding (FLAG-tagged DIM1 (human)) | binding (FLAG-tagged NOB1 (human)) | binding (FLAG-tagged PNO1 (human)) | also measured |
| --- | --- | --- | --- | --- |
| His-tagged DIM1 (from UniProt Q9UNQ2 1-313) | – | – | – | binding (GST-tagged ENP1 (human)): no binding |
| endogenous RIO2 (from UniProt Q9BVS4 1-552) | binds weakly | binds | binds | – |
| untagged PNO1 (from UniProt Q9NRX1 1-252) | – | – | – | binding (GST-tagged RIO2 (human)): binds weakly |

The next lines start with results.

| binding (FLAG-tagged DIM1 (human)) | binding (FLAG-tagged NOB1 (human)) | binding (FLAG-tagged PNO1 (human)) | Substance | also measured |
| --- | --- | --- | --- | --- |
| binds weakly | – | – | endogenous PNO1 (from UniProt Q9NRX1 1-252) | binding (FLAG-tagged U3-55K): binds |
| – | no binding | no binding | endogenous PRP43 (from UniProt O43143 1-795) | – |

Reference: article PMC6380343
